Assay results taken from paper PMC4336329 (PLoS ONE, 2015).
Hit rate of the full screen: of about 310,000 compounds, about 14,000 (4.5%) showed an effect of 50% or more. Effects have a minus sign here. The list shows a part of the results.

molecular target: human ether-à-go-go-related gene (hERG) potassium channel (human, UniProt Q12809); test: primary screen, population patch clamp on CHO cells stably expressing hERG
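Further: peak tail current of the secondary pulse compared with the same well before compound.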

human ether-à-go-go-related gene (hERG) potassium channel, sequence (Q12809 whole entry, looked up): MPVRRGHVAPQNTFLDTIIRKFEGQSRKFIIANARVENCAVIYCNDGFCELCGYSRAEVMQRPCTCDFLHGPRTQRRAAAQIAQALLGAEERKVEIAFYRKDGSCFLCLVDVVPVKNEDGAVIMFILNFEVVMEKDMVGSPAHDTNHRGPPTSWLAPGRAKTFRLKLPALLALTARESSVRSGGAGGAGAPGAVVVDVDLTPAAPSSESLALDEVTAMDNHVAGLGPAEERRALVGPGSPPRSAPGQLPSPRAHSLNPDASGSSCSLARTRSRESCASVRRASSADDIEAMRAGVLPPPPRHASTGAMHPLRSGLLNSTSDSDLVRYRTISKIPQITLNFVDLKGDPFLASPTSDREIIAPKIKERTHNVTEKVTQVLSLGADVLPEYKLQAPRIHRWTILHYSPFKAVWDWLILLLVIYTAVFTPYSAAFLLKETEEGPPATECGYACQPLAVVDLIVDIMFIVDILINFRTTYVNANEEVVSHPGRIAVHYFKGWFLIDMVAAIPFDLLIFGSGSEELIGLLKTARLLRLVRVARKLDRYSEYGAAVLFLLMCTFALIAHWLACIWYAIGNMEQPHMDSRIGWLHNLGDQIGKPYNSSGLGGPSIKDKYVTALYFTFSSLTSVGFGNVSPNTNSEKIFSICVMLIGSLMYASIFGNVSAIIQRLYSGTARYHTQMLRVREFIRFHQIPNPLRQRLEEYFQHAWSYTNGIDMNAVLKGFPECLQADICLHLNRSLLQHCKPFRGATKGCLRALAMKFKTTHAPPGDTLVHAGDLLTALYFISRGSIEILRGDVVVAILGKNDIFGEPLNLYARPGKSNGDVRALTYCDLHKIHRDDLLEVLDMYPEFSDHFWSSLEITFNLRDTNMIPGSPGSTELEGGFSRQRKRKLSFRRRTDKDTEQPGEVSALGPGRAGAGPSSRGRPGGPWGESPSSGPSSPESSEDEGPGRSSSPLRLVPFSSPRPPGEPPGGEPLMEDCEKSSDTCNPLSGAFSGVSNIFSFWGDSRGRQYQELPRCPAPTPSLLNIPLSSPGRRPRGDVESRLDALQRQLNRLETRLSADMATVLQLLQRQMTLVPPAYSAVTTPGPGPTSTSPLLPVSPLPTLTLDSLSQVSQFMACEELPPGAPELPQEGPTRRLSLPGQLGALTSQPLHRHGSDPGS

SMILES | hERG current change (%, negative = inhibition) at 10uM [%]
O=C1OC(c2ccc(Cl)cc2)=N/C1=C\C=C\c1ccco1 | 35.2
COc1ccc(N(CC(=O)NCc2cccnc2)S(=O)(=O)c2ccccc2[N+](=O)[O-])c(OC)c1 | -17
Cc1snc2sc(C(=O)c3ccc(Br)cc3)c(N)c12 | 0.295
OCCC1CN(Cc2nc(-c3ccccc3)cs2)CCN1C1CCCC1 (stereo not shown) | -66.4
CC(c1ccco1)N(C(=O)c1ccc(Cl)s1)c1ccccn1 (stereo not shown) | -4.54
CC(=O)c1ccc(NC(=O)N2CCN(c3ccc(C)cc3)C(C)C2)cc1 (stereo not shown) | -19.6
CC(On1nnc2ccc(S(=O)(=O)N3CCOCC3)cc21)C(=O)Nc1ccccc1F (stereo not shown) | -8.2
CCCCNC(=O)C1CC(=O)N(C2CCCC2)C1 (stereo not shown) | 12.3
Cc1ccc(S(=O)(=O)NCC(=O)Nc2ccc(C(F)(F)F)cc2)cc1 | 1.03
CC(C)(C)NC(=O)Nc1ccccc1C(N)=O | 1.01
CCN1CCN(CCNC(=O)c2ccc(/C=C3\Sc4ccccc4N(Cc4ccccc4F)C3=O)cc2)CC1 | -37.9
COc1cc2ccccc2cc1C(=O)Nc1cc(C)ccn1 | 14.6
COc1ccc(C(C)NC(=O)C2C(=O)NC3(C)CC2c2ccccc2O3)cc1 (stereo not shown) | -2.18
Cc1cc(=O)n2[nH]cc(-c3ccccc3)c2n1 | 12
CC(C)C(CCNCc1ccccn1)c1ccc(Cl)cc1 (stereo not shown) | -41.6
N#Cc1cnn(-c2cccc(Cl)c2)c1-n1cccc1 | -13.8
CC(C)c1ccc(S(=O)(=O)N2CCN(C(=O)CN3C(=O)NC4(CCCC4)C3=O)CC2)cc1 | -1.99
COC(=O)CN1C(=O)C2(C(C#N)=C(N)Oc3cc(C)oc(=O)c32)c2ccccc21 (stereo not shown) | 16.5
C=CCn1c(SCC(=O)NCc2ccc3c(c2)OCO3)nc2scc(-c3ccc(F)cc3)c2c1=O | 1.63
CCOC(=O)C(CCCOc1ccc(C(C)CC)cc1)C(=O)OCC (stereo not shown) | 6.44
CC(NC(=O)CCc1ccccc1)c1cc2c(cc1Cl)OCCO2 (stereo not shown) | -3.13
CCOc1cc(C#N)c(NC(=O)c2ccco2)cc1OCC | -10.5

SMILES | hERG current change (%, negative = inhibition) at 10uM [%]
O=C(Nc1cccc(OCC(=O)N2CCOCC2)c1)C1CCCCC1 | 1.77
Cc1oc(-c2cccc(Cl)c2)nc1CS(=O)(=O)CC(=O)NCCN1CCOCC1 | -0.638
CCOC(=O)c1cc(C(=O)Nc2ccccc2F)nn1C | -2.22
O=C1CCCN1CCC1CCN(C(=O)Nc2ccccc2)CC1 | -3.69
CC(C)CC(=O)Nc1ccccc1N1CCN(c2ccccc2)CC1 | -2.38
N#C/C(=C\c1ccc(N2CCCCC2)o1)C(N)=O | 7.71
c1ccc(CCN2CN=C(Nc3nc4ccccc4o3)NC2)cc1 | -6.44
CCCC(=O)n1nc(-c2ccco2)nc1N | 17
COc1ccc(OC)c(N2C(=O)CCCC2=O)c1 | 18.4
Cc1ccc(C(=O)N2CCN(C(=O)c3ccco3)CC2)cc1NC(=O)c1ccco1 | -44.1
Cc1cc(CNC(=O)Cn2cc([N+](=O)[O-])cn2)c2ccccc2n1 | -11.5
COC(=O)CCC(=O)Nc1ccc(NC(C)=O)cc1 | 20.9
CCOC(=O)c1sc(N)c(C#N)c1CSc1nnc(C2CC2)n1N | 1.32
Cc1noc(C)c1COc1ccc(C(=O)Nc2ncccc2O)cc1 | 11.5
Cc1ccc2nc(N(CCCN(C)C)C(=O)CS(=O)(=O)c3ccccc3)sc2c1.Cl | -22.7
CCCOc1ccc(-c2nc(C#N)c(N3CCN(C)CC3)o2)cc1 | -14.4
O=S(=O)(NCc1ccccc1)NCc1ccccc1F | 7.69
C(=C\c1ccccc1)/CSc1nnc(-c2ccncc2)n1Cc1ccco1 | -63.9
COC(=O)C1=C(C)NC2=C(C1c1ccc(O)cc1)S(=O)(=O)c1ccccc12 (stereo not shown) | 1.76
COc1ccc(NC(=O)c2ccc3nc(-c4ccccc4)c(-c4ccccc4)nc3c2)c(OC)c1 | 8.15
Cc1ccnc(NC(=O)COC(=O)C2COc3ccccc3O2)n1 (stereo not shown) | 9.15
COC(=O)c1sc2cc(C(F)(F)F)cnc2c1-c1ccccn1 | 5.64

SMILES | hERG current change (%, negative = inhibition) at 10uM [%]
O=C(COc1cc2oc(=O)c3c(c2cc1Cl)CCC3)NCC(O)c1ccccc1 (stereo not shown) | 21.4
COc1ccc(Cc2nnc(SCC(=O)Nc3cc(Cl)ccc3C)[nH]c2=O)cc1 | -0.96
COC(=O)NCC(c1ccco1)N1CCN(c2ccc(F)cc2)CC1 (stereo not shown) | -1.75
CC1(c2ccccc2)NC(=O)N(N)C1=O (stereo not shown) | 17.9
CCCCN(CC)Cc1c(C)[nH]c2c(ccc3ccccc32)c1=O | -74.3
Nc1ccc(C(=O)N/N=C2\CCCc3c2[nH]c2ccccc32)cc1 | 16.2
CC(=O)c1c(C)[nH]c(C(=O)COC(=O)c2cccnc2Cl)c1C | -13.1
Cc1cc(NC(=O)C(C)SCC(=O)Nc2cc(C(F)(F)F)ccc2N2CCCCC2)no1 (stereo not shown) | -19.6
Cn1c(=O)c2c(nc(N3CCN(C(=O)c4ccco4)CC3)n2CCSc2ncccn2)n(C)c1=O | -57.4
Cc1c(C(=O)CN2CCOCC2)[nH]c2ccccc12 | -2.99
COc1ccc(CN(C(=O)c2nsc(Cl)c2Cl)C(C(=O)NC2CCCC2)c2ccc(C)cc2)cc1 (stereo not shown) | -12.4
CS(=O)(=O)c1ccc(Cl)c(NC(=O)Nc2ccccc2)c1 | 11.4
Nc1c(C(=O)Nc2ccc(Br)cc2)sc2nc(-c3ccco3)ccc12 | -1.76
CN(CCC#N)Cc1cc(=O)oc2ccc3ccccc3c12 | -22.7
CC(C)(C)n1nnnc1C(c1ccc(F)cc1)N1CCC(C(N)=O)CC1.Cl (stereo not shown) | 11.3
Brc1ccc(OCc2ccccc2)c(CNCc2ccncc2)c1.Cl | -19.9
COc1ccc(Cc2nnc(Nc3ccc(C)cc3C)[nH]c2=O)cc1 | 5.84
COc1cccc(CC(=O)OC(C)C(=O)Nc2ccc(Cl)cn2)c1 (stereo not shown) | -23.9
O=C(CCCNC(=O)c1ccc(Cl)cc1)Nc1ccc(S(=O)(=O)Nc2ncccn2)cc1 | 0.94
O=C(N/N=C/c1ccc(Cl)cc1)c1nc2ccc([N+](=O)[O-])cc2c(=O)[nH]1 | -27.3
Cc1ccc(NC2c3ncccc3C(=O)N2C2CCCCC2)cc1C (stereo not shown) | -12.6
O=C(CSc1ncn[nH]1)Nc1ccccc1Sc1ccccc1 | -16.1

SMILES | hERG current change (%, negative = inhibition) at 10uM [%]
c1ccc(NCc2nc3ccccc3n2CCOc2ccccc2)cc1 | 9.5
O=c1[nH]c(=O)n(-c2ccc(Br)cc2)c(O)c1C=NCCN1CCCCC1 | 1.9
CCN(CC)CCOc1ccc(Br)cc1 | -38.4
Cc1sc2ncnc(OCC(=O)NC3CCS(=O)(=O)C3)c2c1C (stereo not shown) | 19.9
Cc1ccc(N(CC(=O)NN=C2CCN(C)CC2)S(=O)(=O)c2ccccc2)c(C)c1 | -9.48
CC(C)Oc1ccc(CC(=O)NNC(=S)Nc2ccccc2)cc1 | 20.8
CCc1noc(C)c1C(=O)Nc1nc(-c2ccc(OC)c(OC)c2)cs1 | 6.58
Cc1cc(C)c2c(C(C)(C)C)nn(-c3ccccc3)c2n1 | 18.2
COc1ccccc1NC(=O)CN(Cc1ccccc1)S(C)(=O)=O | -5.11
CCCn1c(=S)[nH]c2cc(OC)c(OC)cc2c1=O | -5.68
CCOC(=O)c1ccccc1NC(=O)c1ccc(Cl)c(S(=O)(=O)N2CCOCC2)c1 | -6.83
Cn1c(CNC(=O)CCNC(=O)c2cccc(F)c2)cc(=O)n(C)c1=O | 9.81
CC(=O)Oc1ccc(/C=C2/SC(=S)N(Cc3ccccc3)C2=O)cc1 | 10.2
CCC1=C(OC(=O)N(CC)CC)N2C(=O)OC(=NCC(=O)OC)[C@]2(Cc2ccccc2)[C@H]2C1=CC[C@H]1C(=O)N(CC(=O)OC)C(=O)[C@H]12 | -9.16
Cc1cccc(NS(=O)(=O)c2nnc(NC(=O)c3ccccc3F)s2)c1 | 1.06
COc1ccc2[nH]cc(C(=O)C(=O)N3CCCCC3)c2c1 | 5.35
O=C(COC(=O)CCN=C1NS(=O)(=O)c2ccccc21)NNC(=O)c1ccc(Cl)cc1 | 0.0983
N#Cc1c(N2CCCCC2)nc(N2CCCCC2)c2c1CCN(Cc1ccccc1)C2 | -3.12
Cc1ccc(-n2nnc3c(=O)n(Cc4cccc(C)c4)cnc32)cc1 | 7.66
O=C(N/N=C\C=C\c1ccc([N+](=O)[O-])o1)c1cccs1 | 6.16
CCCSC1=C(C#N)C2(CCCCC2)C(C#N)=C(N)N1 | 27.9
CC(=O)NCCC(=O)Nc1cc(S(=O)(=O)N2CCOCC2)ccc1N1CCCC1 | 17.5
